Changes are numbered by the printed parent chain; changes in the protein carry UniProt numbers. The list shows a part of the results.
T1: RBFOX1 RRM (Homo sapiens, UniProt Q9NWB1 109-208)
T1 sequence: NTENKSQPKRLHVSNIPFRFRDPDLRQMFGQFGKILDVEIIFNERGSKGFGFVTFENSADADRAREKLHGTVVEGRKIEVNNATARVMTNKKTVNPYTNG

B1: AGAGUUU (DNA:RNA)
RNA: GGGAGACCGGAAUUCAGAUUGUCCAGAGUUUUUAAAUCCCGUCGUAGCCACCA
DNA 1: CAATCTGAATTCCGGTCTCCC
DNA 2: TGGTGGCTACGACGGGATT
B2: GGGGUUC (DNA:RNA)
RNA: B1 RNA with A25G, A27G, U31C
DNA 1: CAATCTGAATTCCGGTCTCCC
DNA 2: TGGTGGCTACGACGGGATT
B3: UGAUCUU (DNA:RNA)
RNA: B1 RNA with A25U, G28U, U29C
DNA 1: CAATCTGAATTCCGGTCTCCC
DNA 2: TGGTGGCTACGACGGGATT
B4: GACAGUG (DNA:RNA)
RNA: B1 RNA with A25G, G26A, A27C, G28A, U29G, U31G
DNA 1: CAATCTGAATTCCGGTCTCCC
DNA 2: TGGTGGCTACGACGGGATT
B5: CCCCGAA (DNA:RNA)
RNA: GGGAGACCGGAAUUCAGAUUGUCCCCCCGAAUUAAAUCCCGUCGUAGCCACCA
DNA 1: CAATCTGAATTCCGGTCTCCC
DNA 2: TGGTGGCTACGACGGGATT
B6: AUCUUCU (DNA:RNA)
RNA: B1 RNA with G26U, A27C, G28U, U30C
DNA 1: CAATCTGAATTCCGGTCTCCC
DNA 2: TGGTGGCTACGACGGGATT
B7: UUCAGAA (DNA:RNA)
RNA: B5 RNA with C25U, C26U, C28A
DNA 1: CAATCTGAATTCCGGTCTCCC
DNA 2: TGGTGGCTACGACGGGATT
B8: CGUCAUA (DNA:RNA)
RNA: B5 RNA with C26G, C27U, G29A, A30U
DNA 1: CAATCTGAATTCCGGTCTCCC
DNA 2: TGGTGGCTACGACGGGATT
B9: GAGCGCC (DNA:RNA)
RNA: B5 RNA with C25G, C26A, C27G, A30C, A31C
DNA 1: CAATCTGAATTCCGGTCTCCC
DNA 2: TGGTGGCTACGACGGGATT

These binders were tested against T1, RBFOX1 RRM (assay: EMSA; HiTS-Eq, 1 nM pool, 10 min; buffer printed only for the single-RNA assays: 10 mM Tris pH 7.5, 150 mM NaCl, 3.4 mM EDTA, 0.001% NP-40, 30 C). Conditions: tags: His6 N-terminal (pET28a); label: 5' 32P.
In short: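 Purified RbFox RRM, wild type or mutant, was incubated for 10 min in 50 µL with 1 nM of a 5′-radiolabelled RNA pool carrying 7 randomized nucleotides, whose flanks were annealed to DNA oligonucleotides, over a series of increasing protein concentrations. Unbound RNA was resolved on 8% native PAGE, cut out, reverse-transcribed, barcoded by PCR and sequenced on an Illumina HiSeq 2500. Relative association constants were derived from changes in read counts for each RNA species versus the control reaction and normalised to the cognate motif.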

| Binder | binding signal |
| --- | --- |
| B1 | 0.00931 KA relative to UGCAUGU |
| B2 | 0.0437 KA relative to UGCAUGU |
| B3 | 0.0165 KA relative to UGCAUGU |
| B4 | 0.0177 KA relative to UGCAUGU |
| B5 | 0.00141 KA relative to UGCAUGU |
| B6 | 0.00317 KA relative to UGCAUGU |
| B7 | 0.00968 KA relative to UGCAUGU |
| B8 | 0.00342 KA relative to UGCAUGU |
| B9 | 0.0127 KA relative to UGCAUGU |

— PMC9911399, “Two distinct binding modes provide the RNA-binding protein RbFox with extraordinary sequence specificity”
